Results as given in PubChem BioAssay AID686992 (Broad Institute, 2013).
Out of some 260,000 compounds screened, about 960 (0.37%) were called active. Inconclusive results, whose numbers are uncertain, are shown with a selection of clear calls.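 The calls were made as follows: active = mean E-selectin-positive cell signal at least 10% of the positive control, reached in at least 60% of replicates, without over 20% cell loss; inconclusive = no rule given, readout overlaps actives, possibly toxicity-flagged; inactive = the rest, including those meeting only one limit.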

The molecules below were run against E-selectin (Homo sapiens) (UniProt P16581) (assay: inducers of endothelial E-selectin expression – imaging, HUVEC, immunofluorescence imaging, single point, primary screen (AID 686992;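 also: signal is the percent of cells scored E-selectin positive by PE staining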)). Settings: at 7.58 µM, active compounds read high, normalized: neutral wells 0, TNF-alpha wells 100.
How it was run: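 Assay system: HUVEC, human umbilical vein endothelial cells / Amount: 3,000 HUVEC/well / Controls: TNF-alpha positive control, DMSO neutral control / Compound dosing: single concentration / Medium: EGM-2 over gelatin coat / Evaluation: percent E-selectin-positive cells / Signal: immunofluorescence imaging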

Chain of UniProt P16581 (P16581 whole entry, looked up): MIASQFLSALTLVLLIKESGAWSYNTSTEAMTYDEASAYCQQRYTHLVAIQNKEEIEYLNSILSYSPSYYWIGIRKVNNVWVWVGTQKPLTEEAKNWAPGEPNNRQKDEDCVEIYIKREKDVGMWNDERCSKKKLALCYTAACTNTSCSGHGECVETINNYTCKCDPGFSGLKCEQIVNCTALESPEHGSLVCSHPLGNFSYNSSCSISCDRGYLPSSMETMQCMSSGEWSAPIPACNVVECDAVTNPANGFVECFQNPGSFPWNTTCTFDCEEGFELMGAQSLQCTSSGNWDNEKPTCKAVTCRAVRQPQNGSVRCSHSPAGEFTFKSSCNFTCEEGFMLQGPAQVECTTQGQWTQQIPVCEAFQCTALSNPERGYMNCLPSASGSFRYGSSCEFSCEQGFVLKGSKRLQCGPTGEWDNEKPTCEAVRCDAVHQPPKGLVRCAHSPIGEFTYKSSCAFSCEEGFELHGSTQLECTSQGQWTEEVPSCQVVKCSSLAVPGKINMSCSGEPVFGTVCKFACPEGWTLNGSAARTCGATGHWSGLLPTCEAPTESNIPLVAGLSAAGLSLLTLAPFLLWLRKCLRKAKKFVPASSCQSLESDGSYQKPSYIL

SMILES	activation
CCCc1nn2c(=O)cc(COc3cccc(NC(=O)c4ccco4)c3)nc2s1	inconclusive: 48.1%
C[C@H](NC(=O)C[C@@H]1CC[C@@H]2[C@H](COC[C@H](O)CN2C(=O)Nc2ccccc2)O1)c1ccccc1	inactive: 0.052%
CCN(CC)C(=O)c1ccc2c(=O)n(Cc3cccc(Br)c3)c(=S)[nH]c2c1	inconclusive: 38.4%
CCOC(=O)c1[nH]cnc1C(=O)Nc1ccc([N+](=O)[O-])cc1	inconclusive: 34.1%
O=S1(=O)CC(N2CCN(Cc3ccccc3F)CC2)CN1Cc1cn(Cc2ccccc2)nn1 (stereo not given)	inconclusive: 142%
C[C@@H]1CCCCO[C@@H](CN(C)C(=O)Cc2ccccc2)[C@@H](C)CN([C@H](C)CO)C(=O)c2cc(NC(=O)Nc3ccc(C(F)(F)F)cc3)ccc2O1	inactive: 1.54%
C[C@H](CO)N1C[C@H](C)[C@@H](CN(C)C(=O)c2ccccc2)OCCCC[C@H](C)Oc2ccc(N(C)C)cc2C1=O	inconclusive: 29.6%
O=C(Nc1ccn(CCCN(CCCn2ccc(NC(=O)OCc3ccccc3)nc2=O)CCc2cc3ccccc3[nH]2)c(=O)n1)OCc1ccccc1	inconclusive: 26.4%
Cc1cc(C(=O)Nc2ccccc2Cl)n(-c2ccccc2)n1	inconclusive: 32.6%
Cc1ccc(S(=O)(=O)Nc2ccccc2NS(=O)(=O)c2ccc(C)cc2)cc1	inconclusive: 64.6%
CO[C@H]1CN(C)C(=O)c2ccc(NC(=O)Nc3ccccc3)cc2OC[C@H](C)NC[C@H]1C	inactive: 0.336%
CCOc1ncccc1C(=O)Nc1ccc(Cl)c(S(=O)(=O)N2CCCC2)c1	inconclusive: 33%
Cc1nn(C)cc1NC(=O)C[C@@H]1CC[C@@H]2[C@@H](COc3ccc(NC(=O)NC(C)C)cc3C(=O)N2C)O1	inactive: -0.018%
O=C(NC1CCCCC1)c1cc2c(cc1Cl)N1CCCCCC1=NS2(=O)=O	inconclusive: 61.9%
O=C(NNC(=O)c1cccc(Br)c1)C(=O)N1CCCCC1	inconclusive: 37.8%
O=C(c1ccncc1)N1CC(=O)N2[C@H](CO)[C@H](c3ccc(-c4ccccc4)cc3)[C@H]2C1	inactive: 0.432%
CCn1c(C(=O)Nc2ccsc2C(=O)OC)cc2sc(Cl)cc21	inconclusive: 91.5%
C[C@H]1CN([C@@H](C)CO)C(=O)Cc2cc(NC(=O)Nc3ccc(F)cc3)ccc2O[C@@H]1CN(C)S(=O)(=O)c1ccc(Cl)cc1	inconclusive: 39%
CC1=C(O)C(=O)C(c2c(C)cc(C)c(Br)c2C)=C(O)C1=O	inconclusive: 35.9%
COCC(=O)N1C[C@@H]2[C@H](c3ccccc31)[C@@H](CO)N2Cc1ccccc1	inactive: 0.0435%
Cc1ccccc1NC(=O)c1cc(S(=O)(=O)Nc2cccc(C(=O)O)c2)ccc1Cl	active: 65.6%
C[C@H](CO)N1C[C@H](C)[C@H](CN(C)Cc2ccc3c(c2)OCO3)Oc2ccc(NC(=O)Cn3cnnn3)cc2C1=O	active: 38.5%
C[C@H]1CN([C@@H](C)CO)C(=O)Cc2cc(NC(=O)NC3CCCCC3)ccc2O[C@@H]1CN(C)Cc1ccc(Cl)c(Cl)c1	inconclusive: 78.4%

SMILES	activation
C[C@@H]1CN([C@H](C)CO)C(=O)c2cc(NC(=O)Cc3cn(C)c4ccccc34)ccc2O[C@H]1CN(C)Cc1ccc(Cl)c(Cl)c1	active: 50.6%
O=C(COC(=O)CCC(=O)c1ccc(F)cc1)Nc1cccc(S(=O)(=O)N2CCCC2)c1	inconclusive: 128%
COc1c(N2C[C@@H]3CCCN[C@@H]3C2)c(F)cc2c(=O)c(C(=O)O)cn(C3CC3)c12	inconclusive: 86.9%
CCOC(=O)c1c(NC(=O)COC(=O)c2nc(Cl)ccc2Cl)sc2c1CCC2	active: 137%
Cc1ccc(S(=O)(=O)N(C)C[C@H]2Oc3ccc(NC(=O)CCCN(C)C)cc3C(=O)N([C@H](C)CO)C[C@H]2C)cc1	active: 282%
Cc1cc(C(=O)Nc2ccccc2C)n(-c2ccccc2)n1	inconclusive: 30.9%
CC(C)(C)OC(=O)C[C@@H]1C/C=C\C[C@H](CC(=O)NCCO)C(=O)N2CCC[C@H]2COC1=O	inconclusive: 26.2%
Cc1ccc(S(=O)(=O)N(C)C[C@H]2Oc3ccc(NC(=O)CCC(F)(F)F)cc3CC(=O)N([C@H](C)CO)C[C@H]2C)cc1	inactive: 0.0835%
COc1ccccc1C(=O)N1C[C@@H]2[C@H](c3ccccc31)[C@H](CO)N2Cc1ccc(F)cc1	inactive: -0.195%
Cn1c(=O)c2c(nc(CO)n2C)n(C)c1=O	inconclusive: 71.8%
Cc1ccc(C(=O)N(Cc2nnc(-c3ccc(Cl)cc3)o2)C2CC2)o1	active: 59.2%
C[C@H](CO)N1C[C@H](C)[C@H](CN(C)C(=O)C2CCOCC2)Oc2ncc(C#Cc3ccccc3F)cc2C1=O	inconclusive: 30%
COc1ccc(CN(C)C[C@H]2Oc3ccc(N(C)C)cc3CC(=O)N([C@@H](C)CO)C[C@H]2C)cc1	inconclusive: 68.1%
CCCC#Cc1ccc2c(c1)O[C@H](CN(C)C(=O)c1ccccc1)[C@@H](C)CN([C@H](C)CO)S2(=O)=O	inconclusive: 69.2%
O=[N+]([O-])c1ccc(COc2ccc(CN3CCCCC3)cc2)cc1	inconclusive: 136%
C[C@@H]1CN([C@H](C)CO)C(=O)Cc2cc(NS(=O)(=O)c3ccc(Cl)cc3)ccc2O[C@@H]1CN(C)S(C)(=O)=O	inconclusive: 47.5%
CC(C)C[C@H]1COc2cccc(N3CCN(Cc4ccccc4F)CC3)c2S(=O)(=O)N1	inconclusive: 127%
Cc1cccc(NC(=O)NC2CCCCCCC2)c1	inactive: 0.075%
O=C(COc1ccc(Cl)cc1)NCCCNC(=O)c1cnccn1	active: 34.1%
N#C[C@@H]1[C@H](c2ccc(-c3ccccc3)cc2)[C@H](CO)N1C(=O)Cc1ccccc1	inconclusive: 43.5%
O=C(O)CNC(=O)c1ccccc1Br	inactive: 5.19%
O=C(C[C@@H]1C[C@@H]2c3cc(NC(=O)Nc4ccccc4F)ccc3O[C@@H]2[C@@H](CO)O1)NC1CCCCC1	inactive: 0.528%
